Assay results taken from the RNAGym collection of RNA variant scans (doi:10.1073/pnas.2313332121).
Variants at the background level are over-represented here.

B1: TPR 5TU (parent)
chain: GGAUCUUCUCGAUCUAACAAAAAAGACAAAUCUGCCACAAAGCUUGAGAGCAUCUUCGGAUGCAGAGGCGGCAGCCUUCGGUGGCGCGAUAGCGCCAACGUUCUCAACUAUGACACGCAAAACGCGUGCUCCGUUGAAUGGAGUUUAUCAUG

Variants of: B1
Assay: polymerase ribozyme fitness, log enrichment relative to wild type (log ratio); higher = more active; in vitro selection for triplet polymerase activity
Procedure, shortened: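 Fitness measures genotype enrichment against wild-type enrichment on a logarithmic scale, with inverse-variance-weighted averaging of replicates. The logarithm is base 2, and genotypes were kept only with ≥10 input reads and ≥1 read per output in Illumina sequencing. The sequenced libraries came from one triplicate in vitro selection round, including frozen incubation at −7 °C, of PCR-built, transcribed mutant libraries of each subunit of a heterodimeric triplet polymerase ribozyme.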

Polymerase ribozyme fitness (log ratio), ≤ -4.2:
GGAUCUUCUCGAUCUAACAAAAAAGACAAAUCUGCCACAAAGUUUGAGAGCCACUUCGGAUGCAGAGGCGGCAGCCUUCGGUGGCGCGAUAACGCCAACGUUCUCAACUAUGACACGCAAAACGCGUGCUCCGUUGAAUGGAGUUUAUCAUG [C43U A52C U53A G92A]
GGAUCUUCUCGAUCUAACAAAAAAGACAAAUCUGCCACAAAGUUUGGGAGCAUCUUCGGAUGCCGAUGCGGCAGCCUUCGGUGGCGCGAUAGCGCUAACGUUCUCAACUAUGACACGCAAAACGCGUGCUCCGUUGAAUGAAGUUUAUCAUG [C43U A47G A64C G67U C96U G141A]
GGAUCUUCUCGAUCUAACAAAAAAGACAAAUCUGCCACAAAGGUUGAGAGCAUCUUCGGAUGCAGAGGCGGCAGCCUUCGGUCGCGCGAUAGCGCCAACGUUCUCAUCUAUGACACGCAAAACGCGUGCUCCGUUGAAUGGAGUUUAUCAUG [C43G G83C A107U]
GGAUCUUCUCGAUCUAACAAAAAAGACAAAUCUGCCACAAAGUUUGUGAGCAUCUUCGAAUGCAGAGGCGGCAGACUUCGGUGGCGCGAUAGUGCCAACGUUCUCAACUAUGACACGCAAAACGCCUGCUCCAUUGAAUGGAGUUUAUCAUG [C43U A47U G59A C75A C93U G126C G133A]
GGAUCUUCUCGAUCUAACAAAAAAGACAAAUCUGCCACAAAGUUUGAGAGCAUCUUCGGAUGCAGAGGCGGCAGCCUUCGGUGGCGCGAUAGCGCCAGCGUGCUCAACUACGACACGCAAAACGCGUGCUCCGUUGACUGGAGUUUAUCAUG [C43U A98G U102G U111C A138C]
GGAUCUUCUCGAUCUAACAAAAAAGACAAAUCUGCCACAAAGGUUGAGAGCAGCUUCGGAUGCAGAGGCAGCAGCCUUCGGUGGCGCGAUAGCGCCAAGGUUCUCAACUAUGGCACGGAAAACGCGUGCUCCGUUGAAUGGAGUUUAUCAUG [C43G U53G G70A C99G A113G C118G]
GGAUCUUCUCGAUCUAACAAAAAAGACAAAUCUGCCACAAAGGUUGAGAGCAUCUGCGGAUGCAGAGGCGGCAGCCUUCGGUGGCGCGAUAGCGCUAACGUUCUCAACUAUGACACGCAAAACGCGUGCUCCGUUGAAGGGAGUUUAGCAUG [C43G U56G C96U U139G U148G]
GGAUCUUCUCGAUCUAACAAAAAAGACAAAUCUGCCACAAAGUUUGAGAGCAUCUUCGGAUGCAGCGGCGGCAGCCUUCGGUGGCACGAUAGCGCCAACGUUCUCAACUAUGAGACGCUAAACGCGUGCUCCGUUGUAUGGAGUUUAUCGUG [C43U A66C G86A C114G A119U A137U A150G]
GGAUCUUCUCGAUCUAACAAAAAAGACAAAUCUGCCACAAAGUUUGAGAGAAUCUUCGGAUGCAGAGGCGGCAGCCUUCGGUGGUGCGAUAGCGCCAACGUUCUCAUCUAUGACACGCAAAACGCGUGCUCCGUCGAAUGGAGUUUAUCAUG [C43U C51A C85U A107U U135C]
GGAUCUUCUCGAUCUAACAAAAAAGACAAAUCUGCCACAAAGGUUGAGAGCAUCUUCGGAUGCAGAGGCGGCAGCCUCCGGUGGCGCGAUAGCGCCAUCGUUCUCAACUAUGACACGCAAAACGCGUGCUCCGUUGAAUGGAGUUUAUCAUG [C43G U78C A98U]
GGAUCUUCUCGAUCUAACAAAAAAGACAAAUCUGCCACAAAGGUUGAGAGCAACUUCGGUUGCAGAGGCGGCAGCCUUCGGUGGCGCGAUAGCGCAAACGUUCUCAACUAUGACACGCAAAACGCGUGCUCCGUUGAAUGGAGUUUAGCAUG [C43G U53A A60U C96A U148G]
GGAUCUUCUCGAUCUAACAAAAAAGACAAAUCUGCCACAAAGUUUGAGAGCAUCUUCGGAUGCAGAGGCGGCAGCCUUCGGUGGCGCGAUAGCGCCAACGUUCUCGACUAUGACACGCAAAACGCGUGCUCCGUUGAAUGGAGUUUAUCAUG [C43U A106G]
GGAUCUUCUCGAUCUAACAAAAAAGACAAAUCUGCCACAAAGUUUGAGAGCAUCUUCGGAUGCUGAGGAGGCAGCCUUCGGUGGCGCGAUAGCGCCAACGUUGUCAACUAUGACACGCAAAACGCGUGCUCCCUUGAAUGGAGUUUAUCAUG [C43U A64U C69A C103G G133C]
GGAUCUUCUCGAUCUAACAAAAAAGACAAAUCUGCCACAAAGGUUGAGAGCAUCUUCGGAUGCAGAGGCGGCAGCCUUCGGUGGCGCGACAGCGCCAACGUUCUCAACUAUGACAGGCAAAACGCGUGCUCCGUUGAAUGGAGUUUAUCAUG [C43G U90C C116G]
GGAUCUUCUCGAUCUAACAAAAAAGACAAAUCUGCCACAAAGUUUGAGAGCAUCUUCGGAUGCAGAGGCGGCAGCCUUCGGUGGCGCGAUGGCGCCAACGUUCUCAACUAUGACACGCAAAACGCGUGCUCCGUUGAAUGGAGUUUAUCAUG [C43U A91G]
GGAUCUUCUCGAUCUAACAAAAAAGACAAAUCUGCCACAAAGGUUGAGAGCAUCUUCGGAUGCAGAGGCGGCAGCCUUCGGUCGCGCGAUAGCGCCAACGUUCUCAACUAUGACACGCAAAACGCGUGCUCCGUUGAAUGGAGUUUAUCAUG [C43G G83C]
GGAUCUUCUCGAUCUAACAAAAAAGACAAAUCUGCCACAAAGUUUGAGAGCAUCUUCGGAUGCAGAGGCGGCAGCCUUCGGUGGCGCGAUAGCGCCAACGUUCUCAACUAUGACACGCAAGACGCGUGCUCCGUGGAAUGGAGUUUAUCAUG [C43U A121G U135G]
GGAUCUUCUCGAUCUAACAAAAAAGACAAAUCUGCCACAAAGGUUGAGAGCAUCUUCGGAUGCAGAGGCGGCAGCCUUCGGUGGCACGAUAGCGCCAACGUUCUCAACUAUGACACGCAAAACGCGUGCUCCGUUGAAUGGAGUUUAUCAUG [C43G G86A]
GGAUCUUCUCGAUCUAACAAAAAAGACAAAUCUGCCACAAAGUUUGAGAGUAUCUUCGGAUGCAGAGGCGGCAGCCUUCGGUGGCGCGAUAGCGACAACGUUCUCAACGAUGACACGCAAAACGCGUGCUCCGUUGAAUGGAGUUUAUCAUG [C43U C51U C95A U109G]
GGAUCUUCUCGAUCUAACAAAAAAGACAAAUCUGCCACAAAGGUUGAGAGCAUCUUCGGAGGCAGAGGCGGCACCCUUCGGUGGCGCGAUAGCGCCAACGUUCUCAACUAUGACACGCAAAACGCGUGCUCCGUUGAAUGGAGUUUAUCAUG [C43G U61G G74C]
GGAUCUUCUCGAUCUAACAAAAAAGACAAAUCUGCCACAAAGGUUGAGAGCAUCUUCGGAUGCAGAGGCGGCAGCCUUCGGUGGCCCGAUAGCGCCAACGUUCUCAACUAUGACACGCAAAACGCGUGCUCCGUUGGAUGGAGUUUAUCAUG [C43G G86C A137G]
GGAUCUUCUCGAUCUAACAAAAAAGACAAAUCUGCCACAAAGUUUGCGAGCAUCUUCGGAUGCAGAGGCAGCAGCCUUCGGUGGCGCGAUAGCGCCAACGUUCUCAACUAUGACACGCAAAACGCGUGCUCCGUUGAAUGGAGUUUAUCAUG [C43U A47C G70A]
GGAUCUUCUCGAUCUAACAAAAAAGACAAAUCUGCCACAAAGUUUGAGAGCGUCUUCGGAUGCAGAGGCGGCAGCCUUCGGUGACGCGAUAUCGCCAACGUUCUCAACUAUGACACGCAAAACGCGUGCUCCGUUGAAUGGAGUUUAACUUG [C43U A52G G84A G92U U148A A150U]
GGAUCUUCUCGAUCUAACAAAAAAGACAAAUCUGCCACAAAGGUUGAGAGCAACUUCGGAUGCAGAGGCGGCAGCCUUCGGUUGCGCGAUAGCGACAACGUUCUCAACUAUGACACGCAAAACGCGUGCUCCGUUGAAUGGAGUUUAUCAUG [C43G U53A G83U C95A]
GGAUCUUCUCGAUCUAACAAAAAAGACAAAUCUGCCACAAAGUUUGAGAGCAUCUUCGGAUGCAGAGGCGGCAGCCUUCGGUGGCGCGAUAGCGCCAACGUUCUCAACUAUGGCACGCAAAACGCGUGCUCCGUUGAAUGGAGUUUAUCAUG [C43U A113G]
GGAUCUUCUCGAUCUAACAAAAAAGACAAAUCUGCCACAAAGUUUGAGAGCCUCUUUGGAUGCAGAGGCGGCAGCCUUCGGUAGCGCGCUAGCGCCAACGUUCUCAACUAUGACACGCAAAACGCGUGCUCCGUUGAAUGGAGUUUAUCAUG [C43U A52C C57U G83A A89C]
GGAUCUUCUCGAUCUAACAAAAAAGACAAAUCUGCCACAAAGUUUGGGCGCAUCUUCGGAUGCAGAGGCGGCAGCCUUCGGUGGCGCGAUAGGGCCAAAGUUAUCAAUUAUGACACGCAAAACGCGUGCUCCGUUGAAUGGAGUCUAUCAUG [C43U A47G A49C C93G C99A C103A C108U U145C]
GGAUCUUCUCGAUCUAACAAAAAAGACAAAUCUGCCACAAAGGUUGAGAGCAUCUUCGGAUGCAGAGGCGGCAGCCUUCGGUUGCGCGAUAGCGCCUACGUUCCCAACUAUGACAUGCAAAACGCGUGCUCCGUUGCAUGGAGUUUAUCAUG [C43G G83U A97U U104C C116U A137C]
GGAUCUUCUCGAUCUAACAAAAAAGACAAAUCUGCCACAAAGUUUGAGCGCAUCUUCGGAUCCAGAAGCGGCAGCCUUCGGUGGGGCGAUAGCGCCAACGGUCUCAACUAUGACACGAAAAACGCGUGCUCCGUUGAAUGCAGUUUAUCAUG [C43U A49C G62C G67A C85G U101G C118A G141C]
GGAUCUUCUCGAUCUAACAAAAAAGACAAAUCUGCCACAAAGGAUGAGAGCAUCUUCGGAUGCAGAGGCGGCAGGCUUCGGUGGCGCGAUAGCGCCAACGUUCUCAACUAUGACACGCAAAACGCGUGAUCCCUUGAAUGGAGUUUAUCAUG [C43G U44A C75G C129A G133C]
GGAUCUUCUCGAUCUAACAAAAAAGACAAAUCUGCCACAAAGUUUGAGAGCAUCUUCGGAUGCCGAGGCGGCAGCCUUCGGUGGCGCGUUAGCGCAAACGUUCUCAACUAUGACACGCAAAACGCGUGCUCCGUCGAAUGGAGUUUAUCGUG [C43U A64C A89U C96A U135C A150G]
GGAUCUUCUCGAUCUAACAAAAAAGACAAAUCUGCCACAAAGUUUGUGAGUGUCUUCGGAUGCAGAGGCGGCAGCCUUCGGUGGCGCGAUAGCGCCAACGUUCUCAACUAUGACACGCAAAACGCGUGCUCCGUUGAAUGGAAUUUAUCAUG [C43U A47U C51U A52G G143A]
GGAUCUUCUCGAUCUAACAAAAAAGACAAAUCUGCCACAAAGGUUGAGAGCAUCAUCGGAUGCAGAGGCAGCAGCCUUAGUUGGCGCGAUAGUGCCAACGUUCUCAACUAUGACACGCAAAACGCGUGCUCCGUUGAAGGGAGUUUAUCAUG [C43G U55A G70A C79A G81U C93U U139G]
GGAUCUUCUCGAUCUAACAAAAAAGACAAAUCUGCCACAAAGGUUGAGAGCAUCUUCGGAUGCAGAGGCGGCAGCCUUCGGUGGCGCAAUAGCGUCAACGUUCUAAACUAUGACACGCAAAACGCGUGCUCCGUUGAAUGGAGUUUAUCAUG [C43G G88A C95U C105A]
GGAUCUUCUCGAUCUAACAAAAAAGACAAAUCUGCCACAAAGUUUGAGAGCAUCUUCGGAUGCAGAGGCGGCGGCCUUAGGUGGCGCGAUAGCGCCAACGUUCUCAACUAUGACACGCAAAACGCGUGCUCCGAUGAAUGGAGUUUAUCAUG [C43U A73G C79A U134A]
GGAUCUUCUCGAUCUAACAAAAAAGACAAAUCUGCCACAAAGGUUGAGAGCAUCUUCGGAUGCAGAGGCGGCAGCCUUCGGUGGCGCGAUAGCGCCAACGUUCUCAACUAUGACACGCAAAACUCGUGCUCCGUUGAAUGGAGUUUAUCAUG [C43G G124U]
GGAUCUUCUCGAUCUAACAAAAAAGACAAAUCUGCCACAAAGGUUGAGAGCAUCUACGGAUGCAGAGGCGGCAGCAUUCGGUGGCGCGAUAGCGCCAACGUUCUCAACUAUGACACGCAAAACGCGUGCUCCGUUGAAUGGAGUUUAUCAUG [C43G U56A C76A]
GGAUCUUCUCGAUCUAACAAAAAAGACAAAUCUGCCACAAAGGUUGAGAGCAUCAUCGGAGGCAGAGGCGGCAGCCUUCGGUGGCACGGUAGCGCCAACGUUCUCAACUAUGACACGCAAAUCGCGUGCUCCGUUGAAUGGAGUUUAUCAUG [C43G U55A U61G G86A A89G A122U]
